Here are results for 61 molecules from PubChem BioAssay AID485344 (National Center for Advancing Translational Sciences (NCATS), 2010).

Molecules are shown by their SMILES. Among all 340,000 compounds or so, about 6,900 (2%) were called active. Rule as the data show it: active = inhibition above about 30%; inactive = below that, where a call was filed. This is a selection; strong and weak results do not stand in their true shares. The source gives no active or inactive call for entries shown without one.

UniProt P14416, sequence (P14416 whole entry, looked up): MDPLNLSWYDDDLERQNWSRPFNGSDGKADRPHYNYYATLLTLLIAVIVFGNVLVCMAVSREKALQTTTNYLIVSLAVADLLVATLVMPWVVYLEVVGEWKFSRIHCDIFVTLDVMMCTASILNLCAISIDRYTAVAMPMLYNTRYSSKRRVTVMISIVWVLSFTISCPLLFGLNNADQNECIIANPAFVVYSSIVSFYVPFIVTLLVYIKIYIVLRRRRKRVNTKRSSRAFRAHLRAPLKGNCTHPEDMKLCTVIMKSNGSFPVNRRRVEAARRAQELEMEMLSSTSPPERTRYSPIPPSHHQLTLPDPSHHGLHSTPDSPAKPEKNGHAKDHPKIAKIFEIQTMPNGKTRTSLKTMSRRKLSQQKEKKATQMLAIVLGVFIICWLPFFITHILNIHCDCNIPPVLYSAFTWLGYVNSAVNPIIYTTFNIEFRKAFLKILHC

In the assay the target is D(2) dopamine receptor (Homo sapiens) (UniProt P14416). The assay can be described thus: HTS Assay for Allosteric Antagonists of the Human D2 Dopamine Receptor: Primary Screen for Antagonists. Also: 0% is about no effect. Conditions: HEK293 TREx D2 cells, calcium flux, dopamine EC80; at 10 µM; stronger effect = higher value. Summed up:
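Tetracycline-induced HEK293 T-REx cells expressing D2 force-coupled to calcium signalling were dye-loaded, exposed to compound for 180 s, then challenged with an EC80 of dopamine; calcium flux was followed kinetically for a further 180 s.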
Regarding `Cc1ccc(-n2c(/C=C/c3c(C)n(C)c4ccccc34)nc3ccccc3c2=O)cc1`, the inhibition came to 1.98%. The same measure for `Cc1ccc(C)c(NS(=O)(=O)c2cc3c(cc2C)n(C)c(=O)c(=O)n3C)c1`: 8.78%; for `CCOC(=O)c1c(NC(=O)Cc2coc3cc(C)cc(C)c23)sc2c1CCC2`: 12.9%; for `CC(=O)c1ccc(NC(=O)c2cc(C)nn2-c2ccccc2)cc1`: 0.0906%.

For the molecule `COCCN(CCOC)S(=O)(=O)c1ccc(C(=O)Nc2sc3c(c2C(=O)OC)CCN(C)C3)cc1`, the inhibition is -10.2%. The result for `CCOC(=O)N1CCc2c(sc3c2C(=O)NC(c2ccc(N(C)C)cc2)N3)C1` (stereo unspecified) reads -1.09%; that for `COC(=O)c1ccc2c(C)c(C(C)(C)O)[nH]c2c1`, active: 44.9%. `CCCCOc1ccc(C2c3c(oc4ccc(C)cc4c3=O)C(=O)N2CCCN(C)C)cc1OCC` (stereo unspecified): the inhibition was -7.81%. Take `CC(=O)NCCNC(=O)CCCn1c(=O)[nH]c2ccsc2c1=O`: the inhibition is 8.38%.

In the case of `Cc1ccc(-n2c(SCc3ccccc3F)nc3[nH]ncc3c2=O)cc1Cl`, the inhibition came to 10.3%. The result for `CCc1cccc(NC(=O)Cn2c(C(=O)OC)cc3sc(Cl)cc32)c1` reads -5.13%; that for `CCN(CC)CCNC(=O)C1CCN(C(=O)c2cnn(-c3ccccc3)c2-n2cccc2)CC1`, 11.3%; that for `COc1ccc(CCn2nc(C)c([N+](=O)[O-])c2C)cc1`, active: 32.3%. Consider `O=C(COC(=O)/C=C/C(=O)N1CCN(c2ccccc2)CC1)NC(c1ccccc1)c1ccccc1`, for which the inhibition is active: 69.1%.

With `COc1cccc2cc(-c3nc(-c4ccccc4F)no3)c(=O)oc12`, the inhibition is -0.784%. The same measure for `O=C(Nc1ccc(F)c(Cl)c1)c1ccc2c(Cl)c3c(nc2c1)CCCC3`: 2.29%; for `CCOc1ccccc1CNC(=O)c1cc2c(=O)n(Cc3cccnc3)ccc2nc1C`: -10.9%.

Take `CCCCN(C)CC(O)Cn1cc(/C=C/C(=O)c2ccc(Br)cc2)c2ccccc21` (stereo unspecified): the inhibition was 2.13%.

For the molecule `CCCS(=O)(=O)N1CC(=O)N(c2cccc(Cl)c2)C(C)(C(=O)NC2CCCCC2)C1` (stereo unspecified), the inhibition is -9.84%. In the case of `CC(=O)c1cccc(NC(=O)c2sc(-n3nc(C)c(Cc4ccccc4)c3C)nc2C)c1`, the inhibition was 4.38%. With `Cc1ccc2nc(COc3cccc(NC(=O)Nc4ccc(C)c(Cl)c4)c3)cc(=O)n2c1`, the inhibition worked out at 8.1%. The result for `COCCNC(=O)c1ccc2c(c1)N(Cc1cc(C)ccc1C)C(=O)c1ccccc1S2=O` (stereo unspecified) reads 11.7%. The same measure for `O=C(Cn1c(SCc2ccc(F)cc2)nc2cccnc21)Nc1ccccc1F`: 12.1%. The result for `COc1cccc(-c2cc(C(=O)NCCc3ccc(OC)c(OC)c3)no2)c1` reads -4.16%; that for `OCCC1CN(Cc2cccc(OC3CCCC3)c2)CCN1Cc1ccsc1` (stereo unspecified), active: 65.5%. As for `Cc1ccc(-n2nc3c(=O)n(C(C)C(=O)NCc4ccc(OC(C)C)cc4)nc(C)c3c2C)cc1` (stereo unspecified), the inhibition is -0.872%.

Turning to `CC(=O)c1ccc(NC(=O)CSC2=Nc3ccccc3N=C(c3ccc(F)cc3)C2)cc1`, the inhibition worked out at 7.57%. As to `CC(C)Cn1cc(NC(=O)N2CCN(c3ccc(F)cc3)CC2)c2ccccc2c1=O`, the inhibition amounted to 0.512%. Turning to `COc1cc(OC)cc(-c2nc3nc(C)c(CCC(=O)Nc4cc(C)cc(C)c4)c(C)n3n2)c1`, the inhibition is -6.68%. The result for `CCCCn1c(=O)n(CC2CCC(C(=O)NCCCOC)CC2)c(=O)c2sccc21` (stereo unspecified) reads 4.96%; that for `O=C(NCc1ccc(Cl)cc1)C1CCN(S(=O)(=O)c2cccc3nonc23)CC1`, 15.6%.

As for `CCC(Cc1ccccc1)NC(=O)Cn1nc(C)n2c(cc3occc32)c1=O` (stereo unspecified), the inhibition was -1.25%. The same measure for `CCOc1ccc2nc(NC(=O)c3nc(SCc4ccccc4F)ncc3Cl)sc2c1`: 4.43%; for `Cc1cc(C)cc(-n2c(SCC(=O)Nc3ccccc3)nc3c(oc4ccccc43)c2=O)c1`: -1.27%; for `CC(CCc1ccccc1)NCc1ccc(Cl)cc1Cl` (stereo unspecified): active: 45%. As for `CCC(C)NCCCOc1cc(Cl)ccc1Cl` (stereo unspecified), the inhibition was active: 80%. The result for `Cc1ccc(NC(=O)C2CCCN(c3ncnc4c3nc3n4CCCCC3)C2)c(Br)c1` (stereo unspecified) reads 0.74%; that for `CCn1c(=O)c2cc(C(=O)NCc3cc(OC)ccc3OC)sc2c2ccccc21`, -19.7%; that for `CCN1CCN(c2csc3ccc(Br)cc3c2=O)CC1`, -13.3%.

Turning to `COc1ccc(NC(=O)C2CCCN(S(=O)(=O)c3c(C)[nH]c(=O)[nH]c3=O)C2)cc1OC` (stereo unspecified), the inhibition is 10.1%. For the molecule `CC(C)(C)c1ccc(C(=O)NCC(=O)OCc2cc(=O)n3nc(C4CC4)sc3n2)cc1`, the inhibition amounted to 14.9%. The same measure for `COc1ccc(Cl)cc1NCc1nnc2n1CCCCC2`: -5.71%. As for `COc1ccc(NC(=O)c2oc3ccccc3c2NC(=O)c2cc(=O)c3cc(Cl)ccc3o2)cc1`, the inhibition is -10.1%. The same measure for `COc1ccc(CC(C)NS(=O)(=O)c2ccc3c(c2)CCN3S(C)(=O)=O)cc1OC` (stereo unspecified): -15.1%. Consider `COC(=O)c1c(NC(=O)c2ccc(OC)cc2OC)sc2c1CCCCC2`, for which the inhibition worked out at 0.131%.

`COc1ccc2[nH]c3c(c2c1)CCN(C(=O)CCC1CCCC1)C3c1ccc(F)cc1` (stereo unspecified): the inhibition worked out at 6.95%.

Consider `O=C(CSc1nccn1-c1ccc(F)cc1)Nc1nc2ccccc2s1`, for which the inhibition is 12.5%.

Turning to `Cc1cccc(Cn2c(-c3ccccc3)nc3ccccc32)c1`, the inhibition is -17.1%. The result for `O=C(CC1N=C2c3ccccc3N=C(SCc3ccc(F)cc3)N2C1=O)NCCc1ccccc1` (stereo unspecified) reads -18.5%; that for `Cc1ccc(-c2cnc(C3CC3)o2)cc1S(=O)(=O)Nc1cccc(C)c1C`, 1.07%; that for `CC(C)(C)OC(=O)N1CCC(c2c(C(=O)N3CCN(c4ccccn4)CC3)cnn2-c2ccc(F)cc2F)CC1`, -6.09%. The result for `Cc1ccc2c(c1)-c1nc(-c3ccc4c(c3)NC(=O)CO4)cc(-c3ccccc3)c1CO2` reads 5.75%.

Turning to `CC(=O)N1CCC(N(Cc2ccc(C)o2)C(=O)Nc2cccc(C(F)(F)F)c2)CC1`, the inhibition is -13.8%. As to `Cc1ccc(C)c(NC(=O)CN2C(=O)CCc3cc(S(=O)(=O)N4CCCCC4)ccc32)c1`, the inhibition is 4.08%. The result for `COc1ccccc1NC(=O)Cn1c(C)cc(C)c(C#N)c1=O` reads -15.9%; that for `CC(=O)N1CCc2c(sc3c2c(=O)n(-c2ccccc2)c(=O)n3CC(=O)c2ccccc2)C1`, -3%; that for `O=C(NC1CCN(Cc2ccccc2)CC1)c1ccc(Cn2c(=O)c3ccccc3n(Cc3ccc(Cl)cc3)c2=O)cc1`, 1.61%. The same measure for `COc1ccc(NC(=O)Nc2cc(-c3cn4cccnc4n3)ccc2C)cc1`: -4.36%; for `CC(=O)N1CCc2cc(S(=O)(=O)NC(Cc3ccccc3)C(=O)NCc3ccccc3)ccc21` (stereo unspecified): 4.89%. Turning to `COCc1nc2ccccc2n1Cc1ccc(C(C)(C)C)cc1`, the inhibition was -14.8%.

Take `CC(=O)Nc1ccc(NC(=O)c2ccc3c(c2)N(Cc2cccc(Cl)c2)C(=O)c2ccccc2S3=O)cc1` (stereo unspecified): the inhibition is -19.3%.
